Test results reported in PubChem BioAssay AID1347073 (National Center for Advancing Translational Sciences (NCATS), 2019).
Among all 45,000 compounds or so, about 200 (0.44%) were called active. Not shown: some 7% with an inconclusive outcome. The call rests on the fitted dose curve; in most records, active means well fitted activation curve with a large enough effect; inconclusive means small, poorly fitted or top-dose-only effect; inactive means no such curve, though single readings can be large or run the other way. Some of the results follow.

assay: qHTS of TDP-43 Inhibitors: NCGC Sytravon Library Screen; conditions: yeast TDP-43 toxicity rescue, BacTiter-Glo growth, 24 h; series mostly up to 46.1 µM; growth rescue (activation): at the top concentration; further: 0% is about no effect; nearly all actives have a fitted effect of over 55% in size
How it was run: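 TDP-43-expressing yeast, pregrown in raffinose, seeded at OD600 0.02 in galactose medium with compound for 24 hr at 30 deg C. Growth read by BacTiter-Glo luminescence, so rescue of toxicity appears as activation.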

Structure (SMILES)	growth rescue (activation)
O=C(N/N=C/C1C(c2ccccc2)C1(Cl)Cl)c1cccc(Br)c1 (configuration not stated)	inactive: 7.2%
CCOC(=O)Cn1c(=O)oc2cc(S(=O)(=O)N(C)c3ccc(OC)cc3)ccc21	inactive: 6.93%
COc1ccc(C(=O)Nc2ccc([N+](=O)[O-])cn2)c(OC)c1	inactive: 16.3%
CC(=O)c1c(C)nc(-c2ccc(Cl)cc2)nc1N	inactive: 23.4%
CCc1ccccc1N1CC(C(=O)Nc2cc(C)on2)CC1=O (configuration not stated)	inactive: 11.8%
CN(C)c1nc(C(F)(F)F)cc(=O)[nH]1	inactive: 11.4%
COc1cccc(N2CC(C(=O)Nc3c(C)cccc3C)CC2=O)c1 (configuration not stated)	inactive: -19.9%
CC(C)(Oc1ccc(Cl)cc1)C(=O)O/N=C(\N)c1ccncc1	inactive: 18.7%
O=C(NCCCCCCNC(=O)c1cncc(O)c1)c1cncc(O)c1	inactive: 16.8%
O=[N+]([O-])c1cccnc1NCCc1ccccc1	inactive: 19.8%
COc1ccc(NC(=O)c2ccc(Oc3ncccn3)cc2)cc1	inactive: 23.5%
CC(Sc1n[nH]c(N)n1)C(=O)Nc1ccccc1-c1ccccc1 (configuration not stated)	inactive: -10%
CN(C(=O)c1coc(=O)c2ccccc12)c1ccc(F)cc1	inactive: 26.8%
COc1ccc(S(=O)(=O)N(C)C)cc1NCC(=O)Nc1cccc2ccccc12	inactive: 6.02%
COc1cccc(OC)c1NC(=O)C1CCCN1C(=O)Nc1ccccc1F (configuration not stated)	inactive: -0.9%
O=C/C=C/c1c(-c2ccccc2)cc2oc3ccccc3cc1-2	inactive: -0.735%
NC(=O)COC(=O)c1cc(Cl)cc(Cl)c1N	inactive: 13.9%
NC(=O)c1nn(-c2ccccc2)nc1NC(=O)Cn1nnc(-c2ccccc2)n1	inactive: 12.1%
O=C(NC1CCCC1)C(c1ccccn1)N(C(=O)c1csnn1)c1ccc(F)cc1 (configuration not stated)	inactive: 3.72%
CN1CCN(c2ccccc2NC(=O)c2ccc([N+](=O)[O-])cc2Cl)CC1	inactive: 17.5%
Cc1cccc(OCCSc2nc3ncnc(N)c3[nH]2)c1	inactive: -9.13%
Cc1ccc(S(=O)(=O)NC(=O)C2(C)CCN2C(=O)COc2ccc(Cl)cc2)nc1 (configuration not stated)	inactive: -17.6%

Structure (SMILES)	growth rescue (activation)
CSC(=NC#N)N1CCN(c2ccc([N+](=O)[O-])cc2)CC1	inactive: 15.6%
O=S(=O)(c1ccccc1)c1nc(Nc2cccc(O)c2)sc1Cl	inactive: 16.5%
CCOP(=O)(OCC)C(NC(=O)C(F)(F)F)c1ccccc1 (configuration not stated)	inactive: -1.86%
CC(C)(C)c1ccccc1NC(=O)c1ccc2c(c1)SC1=NS(=O)(=O)CCN12	inactive: 2.29%
N#CCCn1cc(CNC2CCC(O)CC2)c2ccccc21 (configuration not stated)	inactive: 15.8%
C=CCn1c(SCC(=O)c2c(N)n(C)c(=O)n(C)c2=O)nnc1-c1ccoc1C	inactive: 12.9%
O=C(Nc1cccc(NC(=O)c2ccc(Br)o2)c1)c1ccccc1	inactive: 5.61%
CC(C)C(NC(=O)OCc1ccccc1)C(=O)N1CCOCCOCCOCC1 (configuration not stated)	inactive: -8.43%
CCCN1C(=O)/C(=C/c2c(NCCCOC(C)C)nc3c(C)cccn3c2=O)SC1=S	inactive: -11.1%
OC(COC(c1ccccc1)c1ccccc1)CN1CCc2ccccc2C1 (configuration not stated)	inactive: 5.93%
O=C(Nc1cccc(F)c1)C1CCN(C(=O)NCc2ccccc2)CC1	inactive: 6.18%
CCc1ccc2c(c1)NC(=O)C2(C)Cc1ccccc1C#N (configuration not stated)	inactive: 12.1%
N#CCCNS(=O)(=O)c1ccc(C(=O)OCC2CCCCC2)cc1	inactive: -9.06%
CCc1nnc(NC(=O)C2CCN(S(=O)(=O)c3ccc(C)cc3)CC2)s1	inactive: 0.19%
CN(Cc1nc(-c2ccc(Cl)cc2)no1)C(=O)c1ccco1	inactive: 11.7%
Cc1c(Cl)cccc1NC(=S)C(=C([O-])c1ccc(Cl)s1)[n+]1ccccc1	inactive: 17.4%
CCCCC/C=N/NC(=O)c1[nH]c2ccc([N+](=O)[O-])cc2c1C	inactive: 13.6%
COc1ccc(CCNC(=O)COc2ccc3c(C)cc(=O)oc3c2)cc1	inactive: 9.7%
Oc1c(CN2CCOCC2)ccc2ccccc12	inactive: -2.3%
CCOc1ccc(NCc2ccccc2OCc2cccc(F)c2)cc1	inactive: 4.61%
O=C(CN1CCN(c2ccc(O)cc2)CC1)Nc1ccc(SC(F)F)cc1	inactive: 13.3%
COc1ccc(NC(=O)CNc2ccc(C#N)cc2)cc1	inactive: 21.8%

Structure (SMILES)	growth rescue (activation)
CCCSc1ncc(Cl)c(C(=O)N(Cc2ccc(N(C)C)cc2)C2CCS(=O)(=O)C2)n1 (configuration not stated)	inactive: 8.06%
O=C(NC(Cc1ccccc1)C(=O)O)/C(=C/c1cccc(Br)c1)NC(=O)c1ccco1 (configuration not stated)	inactive: 11.4%
COc1ccccc1-n1cccc1C=O	inactive: -0.156%
CCOC(=O)c1ccc[n+](CC(=O)Nc2ccccc2OC(F)F)c1	inactive: 5.61%
O=S(=O)(NC1CCCCC1)c1ccc(Br)s1	inactive: 22.7%
Cc1nnc(SCC(=O)N/N=C/c2ccc(-c3ccc(C)c(Cl)c3)o2)s1	inactive: 18.6%
O=C(NCCc1ccccc1)Nc1nnc([C@@H]2C[C@H](O)[C@@H](CO)O2)s1	inactive: 2.78%
CCOC(=O)CNC(=O)N1CCc2cc(S(=O)(=O)N3CCC(C)CC3)ccc21	inactive: 28%
Cc1ccccc1N1CC(C(=O)Nc2ccc3c(c2)OCO3)CC1=O (configuration not stated)	inactive: 2.04%
CC(=O)NCCc1nc2cc(NC(=O)COc3cccc(C)c3)ccc2n1C	inactive: -10.3%
N#CC(C#N)=C1C=CC=CN1/C(=C\c1ccco1)C(=O)c1ccccc1	inactive: 8.17%
COc1cc(C2C(C#N)=C(N)N(N(C)C)C3=C2C(=O)CCC3)ccc1O (configuration not stated)	inactive: -16.2%
Cc1ccccc1-n1c(/C=C/c2c(C)n(C)c3ccccc23)nc2ccccc2c1=O	inactive: 10.6%
Cc1nc(C)n(CC(=O)N2CCCC(C(=O)c3ccc(Cl)cc3C)C2)n1 (configuration not stated)	inactive: -11.7%
O=C(Cn1cncn1)N/N=C/c1cccc2ccccc12	inactive: 5.88%
Cc1ccc(-c2nnn3c2nc(Cl)c2ccccc23)cc1	inactive: 6.37%
O=C(COc1cccc(Br)c1)N/N=C1\CCCc2ccccc21	inactive: 25.6%
Cc1c(C(=O)N2CCN(Cc3ccc4c(c3)OCO4)CC2)cccc1[N+](=O)[O-]	inactive: 14.3%
COc1ccc(S(=O)(=O)N2CCN(C)CC2)cc1NC(=O)c1ccccc1C	inactive: 2.96%
O=C(NCc1ccccc1Cl)C1CCN(S(=O)(=O)N2CCOCC2)CC1	inactive: 3.19%
O=C(OCC(=O)N1CCC(Cc2ccccc2)CC1)c1ccc[nH]c1=O	inactive: 22%
O=C(O)Cn1cnc2scc(-c3ccccc3)c2c1=O	inactive: 0.214%

Structure (SMILES)	growth rescue (activation)
COc1ccc(CCNS(=O)(=O)c2ccc3[nH]c(=O)[nH]c3c2)cc1	inactive: 0.53%
C=CCNC(=O)c1ccc2nc(Cc3ccc(OC)cc3)oc2c1	inactive: 16.4%
CC(=O)N/C(=C\c1ccccc1)C(=O)OCC(=O)c1c(N)n(C)c(=O)n(C)c1=O	inactive: -3.6%
COc1cccc2cc(C(=O)NCc3ccc(Cl)cc3)c(=O)oc12	inactive: -10.3%
CN(NS(=O)(=O)c1ccc(F)cc1)c1ncc(C(F)(F)F)cc1Cl	inactive: -0.623%
CCN1CCN(C(c2ccccc2)c2sc3nc(-c4ccco4)nn3c2O)CC1 (configuration not stated)	inactive: -4.94%
O=C(CCc1nnc(-c2ccc3c(c2)OCO3)o1)NC(c1cccnc1)C(F)(F)F (configuration not stated)	inactive: 8.7%
OC[C@H]1O[C@@H](c2nc(-c3ccccc3Br)no2)[C@H](O)[C@@H](O)[C@H]1O	inactive: -5.18%
COc1ccccc1C(=O)n1nc(-c2ccco2)nc1NCc1ccc(Cl)cc1	inactive: 9.87%
COc1ccc(Cl)cc1-c1nc(SCC(N)=O)n[nH]1	inactive: 3.4%
COc1cc(CN2CCN(C(=O)CC(C)C)CC2)c([N+](=O)[O-])cc1OC	inactive: -2.47%
COc1ccc(-n2cc3ccc([N+](=O)[O-])cc3n2)cc1	inactive: -1.4%
CN(c1ccccc1)S(=O)(=O)c1cccc(NC(=O)CN2CCCc3ccccc32)c1	inactive: 4.61%
CNC(=S)Nc1sc2c(c1C(=O)OC)CCC2	inactive: 26.1%
CC(=O)c1cccc(NC(=O)N2CCCC2C(=O)Nc2ccc3c(c2)OCCO3)c1 (configuration not stated)	inactive: -8.17%
Cc1coc2cc3oc(=O)c(CC(=O)N[C@@H](CC(C)C)C(=O)O)c(C)c3cc12	inactive: 3.09%
Nc1nnc(-c2cccc([N+](=O)[O-])c2)o1	inactive: 0.855%
CC(=O)C1=C(C)NC(SCC(=O)c2ccccc2)=C(C#N)C1CC(C)C (configuration not stated)	inactive: 15.6%
COc1ccc(Nc2ccc(N3C(=O)CCCC3=O)cc2[N+](=O)[O-])cc1OC	inactive: 1.99%
c1ccc2[nH]c(C3CC3)nc2c1	inactive: 8.99%
O=C(COC(=O)CNS(=O)(=O)c1c(Cl)cccc1Cl)Nc1cccnc1Cl	inactive: 11.1%
CCNC(=O)C1(C)CCN(C(=O)c2cc(C)oc2C)C1 (configuration not stated)	inactive: -2.71%

Structure (SMILES)	growth rescue (activation)
Cc1cc(Cl)nc(NC(=O)Nc2cccc(Cl)c2)n1	inactive: -0.224%
COc1ccc(CN(C)CC(=O)Nc2ccccc2C(=O)NC2CC2)cc1F	inactive: 18.3%
N#C/C(=C(/O)c1ccccc1F)c1nc2cc(C(F)(F)F)ccc2s1	inactive: -10.3%
O=C1Cc2ccccc2C(=O)N1c1cccc(Cl)c1	inactive: 2.79%
COc1ccc(C2C(O)C(c3c[nH]c4ccccc34)=NN2C(=O)CCl)cc1 (configuration not stated)	inactive: 11.7%
C/C(=N/NC(=O)CC(=O)N/N=C(\C)c1ccc([N+](=O)[O-])cc1)c1ccc([N+](=O)[O-])cc1	inactive: -17.8%
COc1ccc(NC(=O)c2ccc(C#N)cc2)cc1NS(=O)(=O)c1ccc(F)cc1	inactive: -7.84%
COc1cc(/C=C/C(=O)OCC(=O)Nc2cccc(F)c2)ccc1O	inactive: 18.2%
Nc1cc(=O)[nH]c(SCC(=O)Nc2cccc(S(=O)(=O)N3CCCCCC3)c2)n1	inactive: 0.949%
CC(=O)Nc1cccc(Oc2ccc3c(c2)C(=O)N(CCC(=O)O)C3=O)c1	inactive: 9.56%
COc1cccc2cc(C(C)N(CCCN3CCOCC3)C(=S)Nc3cc(C)ccc3C)oc12 (configuration not stated)	inactive: -14.1%
COc1ccccc1NC(=O)CCCN1C(=O)C2CC=CCC2C1=O (configuration not stated)	inactive: 12.7%
Cc1cc(=O)n2c(n1)NC(Nc1cccc(C)c1C)=NC2c1ccc(F)cc1 (configuration not stated)	inactive: 0.554%
CC(=O)N1CCN(C(=O)c2cc(=O)c3ccccc3o2)CC1	inactive: -7.12%
CCOC(=O)C1=C(C)N=c2s/c(=C\c3cccn3C)c(=O)n2C1c1cccc(OC)c1OC (configuration not stated)	inactive: -14.6%
O=C(COC(=O)c1cc(=O)[nH]c2ccccc12)NCc1cccs1	inactive: 9.08%
COc1cc(/C=C/C(=O)N2CCOCC2)ccc1OCc1ccccc1	inactive: 38.1%
Cc1cccc(NC(=O)CN(C)C(=O)c2ccc3ccccc3n2)c1C	inactive: 38.1%
O=C(Nc1ccccc1O)c1c(O)c2c([nH]c1=O)CCCC2	inactive: -4.35%
